# In PubChem BioAssay AID504845 (National Center for Advancing Translational Sciences (NCATS), 2011):
# In all, about 390,000 compounds went through this assay and about 150 (0.038%) were called active. The shares of active, inactive and inconclusive entries below differ from those in the screen. The call rests on the fitted dose curve; in most records, active means well fitted inhibition curve with a large enough effect; inconclusive means small, poorly fitted or top-dose-only effect; inactive means no such curve, though single readings can be large or run the other way. Potencies beside an inconclusive call are fits to weak or partial responses and may not hold up.
# Biological target: Regulator of G-protein signaling 4 (Homo sapiens) (UniProt P49798)
# UniProt P49798, sequence (P49798 whole entry, looked up): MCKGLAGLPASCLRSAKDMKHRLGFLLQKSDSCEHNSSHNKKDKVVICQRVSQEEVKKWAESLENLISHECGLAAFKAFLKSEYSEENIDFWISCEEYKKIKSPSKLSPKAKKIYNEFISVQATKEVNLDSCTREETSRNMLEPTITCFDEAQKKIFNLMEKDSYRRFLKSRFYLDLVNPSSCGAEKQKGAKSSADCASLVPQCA
# Test: Inhibitors of Regulator of G Protein Signaling (RGS) 4: qHTS; further: nearly all actives have a fitted effect of over 75% in size
# Conditions: Transcreener GDP fluorescence polarization, RGS4-accelerated GTP hydrolysis; series mostly up to 114 µM
# How it was run: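 MLSMR compounds (23 nl, pin-transferred) preincubated 10 min at room temperature with a 500nM (2x) first reagent, then RGS4 at 900nM (2x) plus Transcreener GDP mix added; fluorescence polarization (620/688 nm) read before and after 90 min at 30 °C.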
# Potency means the concentration at half of the fitted maximal effect; tags describe the fitted curve by direction and shape.
row,SMILES,Potency
1,O=C(N/N=C/c1cccnc1)c1ccc(NC(=O)c2cccc(Cl)c2)cc1,"inconclusive: 79.4 µM [inhibitor, partial curve, poor fit]"
2,Cc1ccc(S(=O)(=O)NCCC(=O)NCC(c2cccs2)N2CCOCC2)cc1 (stereo not drawn),"inconclusive: 89.1 µM [inhibitor, single point]"
3,O=C1NC(=S)SC1=Cc1cc(Br)ccc1O,"inconclusive: 31.6 µM [inhibitor, full curve, poor fit]"
4,Cc1ccc2c(c1)N(C(=O)CSc1nncn1C)C(C)(C)c1ssc(=S)c1-2,"inconclusive: 79.4 µM [inhibitor, partial curve, poor fit]"
5,O=C(N/N=C/c1ccc([N+](=O)[O-])o1)c1sc2ccccc2c1Cl,"inconclusive: 100 µM [inhibitor, single point]"
6,CCN(CC)S(=O)(=O)c1cc([N+](=O)[O-])ccc1NNC(=O)Nc1ccc(F)cc1,inactive
7,COc1ccc2sc(-c3ccc(S(C)(=O)=O)cc3)c(-c3ccc(SC)cc3)c2c1,inactive
8,O=[N+]([O-])c1ccccc1-c1ccc(C(=S)N2CCCC2)o1,"inconclusive: 50.1 µM [inhibitor, partial curve, poor fit]"
9,CCOC(=O)C(NC(=O)Nc1ccc(Cl)cn1)(Oc1ccccc1)C(F)(F)F (stereo not drawn),"inconclusive: 100 µM [inhibitor, single point]"
10,CC(=O)c1ccc(N2CCN(S(=O)(=O)c3cc4[nH]c(=O)c(=O)[nH]c4cc3C)CC2)cc1,inactive
11,Cc1ccc(C)c(N2CCN(C(=O)Cn3cnc4onc(-c5ccc(F)cc5)c4c3=O)CC2)c1,inactive
12,O=C(Nc1ccccc1F)C1CCCN(S(=O)(=O)c2ccccc2)C1 (stereo not drawn),"inconclusive: 17.8 µM [inhibitor, full curve, poor fit]"
13,CC(=O)Nc1ccc(S(=O)(=O)NC2CCCCCC2)cc1,inactive
14,C[C@H](NC(=O)c1nc[nH]c1C(=O)N[C@@H](Cc1ccccc1)C(=O)OC(C)(C)C)c1ccccc1,inactive
15,CCOC(=O)[C@H]1CCC[C@@H](NS(=O)(=O)c2ccc(NC(C)=O)cc2)C1,"inconclusive: 70.8 µM [inhibitor, single point]"
16,COc1cc(/C=C2\SC(=S)N(NC(=O)c3cccc(O)c3)C2=O)ccc1O,inactive
17,N#CCc1c(C#N)c(N)nc(N2CCOCC2)c1C#N,"inconclusive: 28.2 µM [inhibitor, full curve, poor fit]"
18,COc1ccc(CS(=O)/C(Cl)=C(/Cl)C(=O)Nc2ccc(OC)nc2)cc1 (stereo not drawn),"inconclusive: 79.4 µM [inhibitor, partial curve, poor fit]"
19,COc1cc(NC(=O)c2cccc(Cl)c2Cl)ccc1NC(=O)c1cc2ccccc2o1,inactive
20,CCN(CC)C1=N/C(=C\c2ccco2)C(=O)N1c1ccccc1,"inconclusive: 50.1 µM [inhibitor, partial curve, poor fit]"
21,Cc1occc1C(=O)NCc1cccc(CNC(=O)c2ccoc2C)c1,"inconclusive: 100 µM [inhibitor, partial curve, poor fit]"

row,SMILES,Potency
1,Oc1c(Br)cc(/C=N/Nc2ccc(Cl)nn2)cc1Br,"inconclusive: 50.1 µM [inhibitor, partial curve, poor fit]"
2,Nc1nnnn1CC(=O)N/N=C/c1ccc(-c2cccc(Cl)c2)o1,"inconclusive: 50.1 µM [inhibitor, partial curve, poor fit]"
3,CCCc1nc(SCC(=O)c2ccc3c(c2)NC(=O)CO3)[nH]c(=O)c1CC,"inconclusive: 31.6 µM [inhibitor, full curve, poor fit]"
4,CCCOc1ccc(C(=O)NNC(=S)NC(=O)c2cc(-c3ccc(Cl)cc3)nc3ccccc23)cc1,"inconclusive: 79.4 µM [inhibitor, partial curve, poor fit]"
5,COc1cc(/C=C(\C#N)c2nc3ccc(C)cc3[nH]2)ccc1OCc1ccc(C)cc1,"inconclusive: 44.7 µM [inhibitor, partial curve, poor fit]"
6,CN(Cc1cccc(F)c1)C(=O)c1cccc(S(=O)(=O)N2CCN(Cc3ccccc3)CC2)c1,inactive
7,CN(CC(=O)NCC(=O)Nc1ccc(F)cc1)CC(=O)Nc1ccc(Cl)c(C(F)(F)F)c1,"inconclusive: 89.1 µM [inhibitor, single point]"
8,O=C(Nc1ccc(C(=O)O)cc1)/C(=C\c1ccc2c(c1)OCO2)NC(=O)c1ccc(Br)o1,"inconclusive: 35.5 µM [inhibitor, full curve, poor fit]"
9,O=C(CSc1nnc(Nc2ccccc2)s1)Nc1cccnc1Cl,"inconclusive: 100 µM [inhibitor, single point]"
10,CC(=O)c1c(N2CCCC2)[nH]c(-c2ccccc2)nc1=S,"inconclusive: 79.4 µM [inhibitor, partial curve, poor fit]"
11,COc1cc(/C=C2\C(C)=C(C#N)c3nc(N)c(C#N)c(C)c32)ccc1OCC(=O)O,inactive
12,Cc1cc(=O)[nH]c(NN=Cc2cc(Br)ccc2O)n1,inactive
13,O=C(Nc1ncccc1O)c1ccc(Oc2ccccc2)cc1,"inconclusive: 50.1 µM [inhibitor, partial curve, poor fit]"
14,CC(C)(C)c1ccc(C(=O)CSc2ncn[nH]2)cc1,"inconclusive: 20 µM [inhibitor, full curve, poor fit]"
15,C=CC[C@@H](CC(=O)N(CCO)Cc1ccccc1)C(=O)N[C@H](COC(=O)[C@@H](CC=C)Cc1ccc(F)cc1)C(C)(C)C,inactive
16,CCC(C)Cn1cnc2c(SCc3ccccn3)nc(N)nc21 (stereo not drawn),inactive
17,CC(=O)N/C(=C\c1ccccc1)C(=O)OCC(=O)N(C)C1CCCCC1,inactive
18,CCc1nc(SCC(=O)c2cc(C)ccc2C)n[nH]1,"inconclusive: 39.8 µM [inhibitor, full curve, poor fit]"
19,O=c1[nH]c(=S)[nH]c2nc[nH]c12,inactive
20,C=CC[C@@H]1[C@H](O)CC[C@@]2(C)[C@H]1CC[C@@H]1[C@@H]2CC[C@]2(C)C([C@H](C)CCCC(C)C)CC[C@@H]12 (stereo partly drawn),"inconclusive: 0.0336 µM [inhibitor, full curve, poor fit]"
21,CCc1cc(=O)oc2cc(C)c(CN3CCCC(C)C3)c(O)c12 (stereo not drawn),"inconclusive: 89.1 µM [inhibitor, partial curve, poor fit]"

row,SMILES,Potency
1,COc1ccc(-n2cnnc2SCC(=O)NCc2cccs2)cc1,"inconclusive: 89.1 µM [inhibitor, single point]"
2,Cc1ccc(-n2nc3c4c(cccc4c2=O)-c2ccccc2-3)cc1,"inconclusive: 79.4 µM [inhibitor, single point]"
3,CCOC(=O)c1cnc2c(ccc3ccccc32)c1Nc1ccc(C(C)=O)cc1,inactive
4,COCc1nc2ccccc2n1Cc1ccc(C(C)(C)C)cc1,inactive
5,COc1ccc(CCNCc2csc3nc4ccccc4n23)cc1OC,"inconclusive: 89.1 µM [inhibitor, single point]"
6,CC(C)(C)c1ccc(S(=O)(=O)/N=C2\C=C(NS(=O)(=O)c3ccccc3)C(=O)c3ccccc32)cc1,"inconclusive: 100 µM [inhibitor, partial curve, poor fit]"
7,COc1ccc(C(=O)COC(=O)c2cc(=O)[nH]c3ccccc23)c(OC)c1,inactive
8,CCc1ccc(/C=C2\SC(=S)N(CCCC(=O)Nc3ccc(C(=O)O)cc3)C2=O)cc1,"inconclusive: 50.1 µM [inhibitor, partial curve, poor fit]"
9,Cc1ccc(S(=O)(=O)N(C)c2ccc(NS(C)(=O)=O)cc2)cc1,inactive
10,N#CC1=C(N)C(C#N)(C#N)[C@H](c2ccncc2)[C@H]2CN(C(=O)OCc3ccccc3)CC=C12,"inconclusive: 35.5 µM [inhibitor, full curve, poor fit]"
11,CCN1CCN(c2csc3ccc(Br)cc3c2=O)CC1,"inconclusive: 56.2 µM [inhibitor, partial curve, poor fit]"
12,COc1ccc(NC(=O)C2CCCN(S(=O)(=O)c3c(C)[nH]c(=O)[nH]c3=O)C2)cc1OC (stereo not drawn),"inconclusive: 50.1 µM [inhibitor, single point]"
13,COc1ccc(O)c(C(=O)c2cc(SCC(=O)O)c3nc4sc5c(c4c(=O)n3c2)CCCC5)c1,"inconclusive: 79.4 µM [inhibitor, partial curve, poor fit]"
14,O=C(/C=C/c1ccccc1)c1cc(Br)ccc(=O)c1O,"inconclusive: 50.1 µM [inhibitor, partial curve, poor fit]"
15,COc1ccc(C(=O)C(CCC(CNC(C)(C)C)C(=O)c2ccc(OC)cc2)CNC(C)(C)C)cc1 (stereo not drawn),"inconclusive: 50.1 µM [inhibitor, partial curve, poor fit]"
16,Oc1ccc(/C=N/N=C(c2ccccc2)c2ccccc2)c(O)c1O,"inconclusive: 89.1 µM [inhibitor, partial curve, poor fit]"
17,COc1cc(CCC(=O)Oc2ccc(C(C)=O)cc2)cc(OC)c1OC,"inconclusive: 100 µM [inhibitor, single point]"
18,CC(NC(=O)COC(=O)c1ccc(N(C)C)cc1)c1ccccc1 (stereo not drawn),"inconclusive: 100 µM [inhibitor, single point]"
19,CCCCOc1ccc(/C=N/NC(=O)c2nnn(-c3nonc3N)c2C)cc1,"inconclusive: 79.4 µM [inhibitor, partial curve, poor fit]"
20,CCOc1ccccc1CNC(=O)c1cc2c(=O)n(Cc3cccnc3)ccc2nc1C,"inconclusive: 89.1 µM [inhibitor, single point]"
21,Cc1cc(C)c2c(n1)nn1c(NCCCN(C)C)cc(C)nc21,inactive
